Data from patent publication US9969775B2, “CGRP antagonist peptides” (Ferring B.V., priority 2015, dated 2018).
At least one structure is not confirmed: it was looked up by name or label, or the drawing left a doubt. Numbered stars: 1 amine (or outer) side, 2 acyl side, 3 side chain; on linkers, the order of the positions; unused ones are H or OH. Bridge positions count the residues as written; N and C are the ends. Square brackets hold non-standard residues; d marks the D form. Side chains are listed from the residue outwards. Peptide text beside a SMILES is read from it. * marks the point of attachment. Phe(2-CONH2) = NC(=O)c1ccccc1C[C@H](N)C(=O)O; X15 = N#CN=C(N)NCCC[C@H](N[*:1])C(=O)[*:2]; X13 = N#CN=C(N)NCC[C@H](N[*:1])C(=O)[*:2]; Triazol3yl(1,2,4-5-NH2) = Nc1nc(*)n[nH]1; Arg(Me) = CNC(=N)NCCC[C@H](N)C(=O)O; Benzoyl(4-F) = O=C(c1ccc(F)cc1)*; Oxazole2carbonyl = O=C(c1ncco1)*; 3Pal = N[C@@H](Cc1cccnc1)C(=O)O; Agp = N=C(N)NC[C@H](N)C(=O)O; Picolinoyl = O=C(c1ccccn1)*; Orn = NCCC[C@H](N)C(=O)O; Dab = NCC[C@H](N)C(=O)O; Dap = NC[C@H](N)C(=O)O; AEEA = NCCOCCOCC(=O)O

How the values were obtained:
[1] = target: T1, hCGRP receptor (CALCRL:RAMP1) (Homo sapiens, UniProt O60894+Q16602); test: CGRP receptor antagonist activity measured by cAMP assay (HTRF); assay type: cell-based; conditions: GeneBLAzer CALCRL:RAMP1-CRE-bla Freestyle 293F cells; agonist human α-CGRP; 30 minutes; read-out: hCGRP-R IC50 Ave
T1 construct: host or cells: GeneBLAzer CALCRL:RAMP1-CRE-bla Freestyle 293F
Method: Example 6: CGRP Receptor Antagonist Activity Measured by cAMP Assay
CGRP receptor agonists increase intracellular cyclic adenosine mono-phosphate (cAMP). CGRP receptor antagonists can reduce the agonist effect. Antagonist activity was assessed by measurement of cyclic adenosine mono-phosphate (cAMP) using cell line stably expressing the hCGRP receptor (GeneBLAzer® CALCRL:RAMP1-CRE-bla Freestyle™ 293F, Invitrogen). hCGRP receptor expressing cells were maintained in DMEM high-glucose with GlutaMAX™ containing 10% (v/v) FBS, 0.1 mM NEAA, 25 mM HEPES, 5 ug/ml Blasticidin, 100 ug/ml Hygromycin, and 400 ug/ml Geneticin at 37° C. under 5% CO2 in a humidified atmosphere. For cAMP measurement, cells were washed once with 5 ml 1×PBS, cell maintenance media was replaced with compound buffer ((CB): DMEM containing 0.1% BSA and 0.5 mM IBMX), and flasks were incubated for 1 hour at 37° C. under 5% CO2 in a humidified atmosphere. Cells were removed from culture flasks using non-enzymatic cell dissociation buffer and harvested in CB. The reaction was performed in 384 well white small volume plates (Greiner) at a density of 10,000 cells/well. Cells were exposed to varying concentrations of antagonist compounds for 30 minutes in the presence of a fixed concentration of agonist (human α-CGRP). cAMP levels were measured using an HTRF (homogeneous time resolved fluorescence)-based competitive cAMP immunoassay (cAMP Dynamic 2 Kit, Cisbio), according to the manufacturer's instructions. […] Reported parameters include antagonist potency IC50 (the concentration causing half-maximal inhibition of the agonist response for antagonist compounds) and efficacy (% MPE: percent of the maximal possible effect).

[2] = target: T2, hAM2 receptor (CALCRL:RAMP3) (Homo sapiens, UniProt O60896+Q16602); test: AM2 receptor antagonist activity measured by cAMP assay (HTRF); assay type: cell-based; conditions: GeneBLAzer CALCRL:RAMP3-CRE-bla Freestyle 293F cells; agonist human adrenomedullin; read-out: hAM2-R IC50 Ave
T2 construct: expressed in transfected cells; host or cells: GeneBLAzer CALCRL:RAMP3-CRE-bla Freestyle 293F
T2 sequence (Q16602 23-461): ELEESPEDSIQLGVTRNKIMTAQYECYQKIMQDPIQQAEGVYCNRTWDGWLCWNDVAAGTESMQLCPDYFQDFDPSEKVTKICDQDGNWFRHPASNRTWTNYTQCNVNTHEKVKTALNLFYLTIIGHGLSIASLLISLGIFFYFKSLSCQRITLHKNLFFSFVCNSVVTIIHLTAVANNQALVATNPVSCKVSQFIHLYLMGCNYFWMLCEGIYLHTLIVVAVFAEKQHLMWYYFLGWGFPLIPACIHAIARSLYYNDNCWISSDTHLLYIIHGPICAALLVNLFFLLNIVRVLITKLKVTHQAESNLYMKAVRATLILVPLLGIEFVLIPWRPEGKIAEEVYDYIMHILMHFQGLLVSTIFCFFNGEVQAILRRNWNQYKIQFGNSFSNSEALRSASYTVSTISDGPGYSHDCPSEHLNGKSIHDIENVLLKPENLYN
T2 sequence (O60896 24-148): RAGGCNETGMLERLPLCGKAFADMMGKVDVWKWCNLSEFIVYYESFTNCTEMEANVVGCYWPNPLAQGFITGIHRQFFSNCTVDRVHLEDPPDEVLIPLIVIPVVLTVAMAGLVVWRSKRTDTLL

T1 sequence (Q16602 23-461): as the sequence (Q16602 23-461) above
T1 sequence (O60894 27-148): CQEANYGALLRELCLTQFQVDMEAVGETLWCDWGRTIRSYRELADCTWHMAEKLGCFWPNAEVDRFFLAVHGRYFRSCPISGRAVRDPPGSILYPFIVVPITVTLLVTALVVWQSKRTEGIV

Compound	IC50 [1] [nM]	IC50 [2] [nM]
CNC(=N)NCCC[C@@H]1NC(=O)[C@@H](NC(=O)[C@H](Cc2ccc(O)cc2)NC(=O)[C@H](NC(=O)c2ccccn2)C(C)C)CSSC[C@@H](C(=O)N[C@@H](Cc2cccnc2)C(N)=O)NC(=O)[C@H](Cc2ccccc2)NC(=O)[C@@H]2CCCN2C(=O)CNC(=O)[C@H](C(C)C)NC(=O)[C@H](CC(=O)O)NC1=O [Compound 28, Picolinoyl-D-Val-Tyr-c(Cys-Arg(Me)-Asp-Val-Gly-Pro-Phe-Cys)-3Pal-NH2] (Picolinoyl-[dV]YC[Arg(Me)]DVGPFC[3Pal]-NH2; disulfide 3-10)	0.07	68
CC(C)[C@@H]1NC(=O)[C@H](CC(=O)O)NC(=O)[C@H](CCNC(N)=NC#N)NC(=O)[C@@H](NC(=O)[C@H](Cc2ccc(O)cc2)NC(=O)[C@H](NC(=O)c2ccc(F)cc2)C(C)C)CSSC[C@@H](C(=O)N[C@@H](Cc2cccnc2)C(N)=O)NC(=O)[C@H](Cc2ccccc2)NC(=O)[C@@H]2CCCN2C(=O)CNC1=O [Compound 19, Bz(4-F)-D-Val-Tyr-c(Cys-norArg(CN)-Asp-Val-Gly-Pro-Phe-Cys)-3Pal-NH2] ({Benzoyl(4-F)}-[dV]YC[X13]DVGPFC[3Pal]-NH2; disulfide 3-10)	0.19	48
CC(C)[C@@H]1NC(=O)[C@H](CC(=O)O)NC(=O)[C@H](CCNc2nc(N)n[nH]2)NC(=O)[C@@H](NC(=O)[C@H](Cc2ccccc2C(N)=O)NC(=O)[C@H](NC(=O)c2ncco2)C(C)C)CSSC[C@@H](C(=O)N[C@@H](Cc2cccnc2)C(N)=O)NC(=O)[C@H](Cc2cccnc2)NC(=O)[C@@H]2CCCN2C(=O)CNC1=O [Compound 42, Oxazole-2-carbonyl-D-Val-Phe(2-Cbm)-c(Cys-Dab(Atz)-Asp-Val-Gly-Pro-3Pal-Cys)-3Pal-NH2] (Oxazole2carbonyl-[dV][Phe(2-CONH2)]C[Dab](Triazol3yl(1,2,4-5-NH2))DVGP[3Pal]C[3Pal]-NH2; disulfide 3-10)	0.14	1230
CC(C)[C@@H]1NC(=O)[C@H](CC(=O)O)NC(=O)[C@H](CCCNc2nc(N)n[nH]2)NC(=O)[C@@H](NC(=O)[C@H](Cc2ccccc2C(N)=O)NC(=O)[C@H](NC(=O)c2ncco2)C(C)C)CSSC[C@@H](C(=O)N[C@@H](Cc2cccnc2)C(N)=O)NC(=O)[C@H](Cc2cccnc2)NC(=O)[C@@H]2CCCN2C(=O)CNC1=O [Compound 52, Oxazole-2-carbonyl-D-Val-Phe(2-Cbm)-c(Cys-Orn(Atz)-Asp-Val-Gly-Pro-3Pal-Cys)-3Pal-NH2] (Oxazole2carbonyl-[dV][Phe(2-CONH2)]C[Orn](Triazol3yl(1,2,4-5-NH2))DVGP[3Pal]C[3Pal]-NH2; disulfide 3-10)	0.15	770
CC(C)[C@@H]1NC(=O)[C@H](CC(=O)O)NC(=O)[C@H](CCCNC(N)=NC#N)NC(=O)[C@@H](NC(=O)[C@H](Cc2ccc(O)cc2)NC(=O)[C@H](NC(=O)c2ccccn2)C(C)C)CSSC[C@@H](C(=O)N[C@@H](Cc2cccnc2)C(N)=O)NC(=O)[C@H](Cc2ccccc2)NC(=O)[C@@H]2CCCN2C(=O)CNC1=O [Compound 26, Picolinoyl-D-Val-Tyr-c(Cys-Arg(CN)-Asp-Val-Gly-Pro-Phe-Cys)-3Pal-NH2] (Picolinoyl-[dV]YC[X15]DVGPFC[3Pal]-NH2; disulfide 3-10)	0.06	38
CC(C)[C@@H]1NC(=O)[C@H](CC(=O)O)NC(=O)[C@H](CNC(=N)N)NC(=O)[C@@H](NC(=O)[C@H](Cc2ccc(O)cc2)NC(=O)[C@H](NC(=O)c2ccc(F)cc2)C(C)C)CSSC[C@@H](C(=O)N[C@@H](Cc2cccnc2)C(N)=O)NC(=O)[C@H](Cc2ccccc2)NC(=O)[C@@H]2CCCN2C(=O)CNC1=O [Ref. Cpd. 1, Bz(4-F)-D-Val-Tyr-c(Cys-Agp-Asp-Val-Gly-Pro-Phe-Cys)-3Pal-NH2, reference compound] ({Benzoyl(4-F)}-[dV]YC[Agp]DVGPFC[3Pal]-NH2; disulfide 3-10)	0.2	42
CC(C)[C@@H]1NC(=O)[C@H](CC(=O)O)NC(=O)[C@H](CNC(=O)COCCOCCNC(=O)COCCOCCN)NC(=O)[C@@H](NC(=O)[C@H](Cc2ccc(O)cc2)NC(=O)[C@H](NC(=O)c2ccccn2)C(C)C)CSSC[C@@H](C(=O)N[C@@H](Cc2cccnc2)C(N)=O)NC(=O)[C@H](Cc2ccccc2)NC(=O)[C@@H]2CCCN2C(=O)CNC1=O [Compound 10] (Picolinoyl-[dV]YC[Dap]([AEEA-AEEA])DVGPFC[3Pal]-NH2; disulfide 3-10)	0.19	114
